Experimental data as given in paper PMC6919601, “Identification of Plasmodium dipeptidyl aminopeptidase allosteric inhibitors by high throughput screening” (PLoS ONE, 2019).
Hit rate of the full screen: of about 110,000 compounds, about 230 (0.21%) showed an effect of 50% or more. The list shows a part of the results.

biological target: DPAP1 (Plasmodium falciparum, UniProt Q8IIJ9); assay: primary screen, percent inhibition; read by cleavage of a fluorogenic dipeptide substrate; higher = more effect of the substance; parameters: species or system P. falciparum D10 trophozoite lysates; single well
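Also: 30 min substrate incubation versus DMSO and 10 µM JCP410 controls.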

DPAP1, sequence (Q8IIJ9 whole entry, looked up): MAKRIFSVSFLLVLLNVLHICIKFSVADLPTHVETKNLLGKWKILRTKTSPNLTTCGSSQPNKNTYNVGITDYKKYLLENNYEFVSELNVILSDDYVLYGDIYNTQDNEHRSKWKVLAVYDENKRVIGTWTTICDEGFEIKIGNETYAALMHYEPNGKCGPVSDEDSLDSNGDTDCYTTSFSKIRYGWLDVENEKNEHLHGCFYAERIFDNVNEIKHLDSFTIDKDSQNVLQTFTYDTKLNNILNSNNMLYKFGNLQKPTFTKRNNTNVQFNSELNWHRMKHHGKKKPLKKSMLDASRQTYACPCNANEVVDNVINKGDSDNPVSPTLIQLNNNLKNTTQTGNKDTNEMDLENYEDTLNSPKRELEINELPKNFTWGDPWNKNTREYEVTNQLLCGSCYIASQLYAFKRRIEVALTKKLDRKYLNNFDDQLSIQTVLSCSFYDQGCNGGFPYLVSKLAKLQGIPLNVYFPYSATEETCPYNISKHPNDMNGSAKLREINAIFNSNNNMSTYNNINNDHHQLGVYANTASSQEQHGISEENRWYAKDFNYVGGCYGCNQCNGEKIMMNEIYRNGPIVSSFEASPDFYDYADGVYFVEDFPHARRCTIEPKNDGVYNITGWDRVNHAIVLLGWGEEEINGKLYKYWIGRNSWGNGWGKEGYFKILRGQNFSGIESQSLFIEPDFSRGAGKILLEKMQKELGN

| SMILES | % Inhibition @ 10 uM [%] |
| --- | --- |
| Cc1ccc2c(Cl)c(C(=O)Nc3ccccc3C(N)=O)sc2c1 | -2.54 |
| CN1CCCN(Cc2cccc3ccccc23)CC1 | -1.92 |
| COc1cccc2c1Oc1nc(-c3ccccn3)nc(O)c1C2 | 3.92 |
| O=C(Nc1cc([N+](=O)[O-])ccc1O)c1ccc(Br)cc1 | -1.86 |
| CCOC(=O)c1cc(C)[nH]c1C | 4.42 |
| CC1=C(C(=O)Nc2ccc(F)cc2F)C(c2ccc3c(c2)OCO3)C2=C(O)CCCC2=N1 (centres unmarked) | 0.121 |
| Cc1ccc(S(=O)(=O)N2CCCC(C(=O)NC(c3ccccc3)c3ccccc3)C2)cc1 (centres unmarked) | -1.07 |
| COc1cc(C2c3c(-c4ccccc4O)n[nH]c3C(=O)N2CCCO)ccc1OCC(C)C (centres unmarked) | -1.35 |
| O=C(O)Cc1ccc(CCc2ccccc2)s1 | -0.0369 |
| Cn1nccc1C(=O)Nc1ccn(Cc2ccccc2F)n1 | 0.709 |
| Cn1cc(S(=O)(=O)N2CCCC2)cc1C(=O)N1CCC(Cc2ccccc2)CC1 | -8.34 |
| COc1ccc(OC)c(NC(=O)C2CCCC2)c1 | 0.231 |
| Cc1ccc(C2CC(C(F)(F)F)n3nc(C(=O)NCC4CCCO4)cc3N2)cc1 (centres unmarked) | 18.5 |
| CCCC(NS(=O)(=O)c1cc(-c2cc(C)no2)ccc1C)c1cccs1 (centres unmarked) | -1.92 |
| CCC(Sc1nnnn1-c1ccccc1)C(=O)Nc1sc2c(c1C#N)CCCC2 (centres unmarked) | 3.47 |
| CCc1nn(CC(=O)NCCCN2CCN(Cc3ccccc3)CC2)c(=O)c2cc3occc3n12 | 4.55 |
| Cc1cccc(C)c1NC(=O)CN1C(=O)S/C(=C/c2cc(C)n(-c3cccnc3)c2C)C1=O | 2.98 |
| CCC(=O)c1c(N2CCOCC2)nc(C)c2c1CCCC2 | -1.84 |
| O=C(/C=C(/Nc1ccccn1)C(=O)c1ccccc1)c1ccccc1 | -0.99 |
| COc1ccc(/C=C(/NC(=O)c2ccccc2)C(=O)N2CC3(C)CC2CC(C)(C)C3)cc1 (centres unmarked) | 2.38 |
| Cn1cc(NC(=O)N2CCCCCC2)c2ccccc2c1=O | 0.745 |
| Nc1ccc2c(c1)C(=O)N(CCCCCC(=O)O)C2 | -4.12 |
| CCOC(=O)C(C#N)=C1CCCCCC1 | -4.06 |
| CC12CCC(O)CC1=CCC1C2CCC2(C)C(O)/C(=C/c3ccc(OC(F)F)cc3)CC12 (centres unmarked) | 10.9 |
| CCC(=O)Nc1c(C)n(C)n(-c2ccccc2)c1=O | 3.15 |
| NC(=O)CN(c1ccccc1)C1SC(=O)N(Cc2cccc(C(=O)O)c2)C1=O (centres unmarked) | -2.8 |

| SMILES | % Inhibition @ 10 uM [%] |
| --- | --- |
| c1ccc(OCCCCN2CCCCC2)cc1 | 5.29 |
| CC(C)C[C@H](NC(=O)N1CCN(C(c2ccc(F)cc2)c2ccc(F)cc2)CC1)C(=O)NCC#N | -0.406 |
| CCCC(C(=O)O)N1C(=O)C2C3C=CC(C3)C2C1=O (centres unmarked) | -0.759 |
| CN(C)CCN(Cc1ccccc1)Cc1cccc(F)c1 | -1.81 |
| OC(c1cccc(OCc2ccccc2)c1)c1cccs1 (centres unmarked) | 1.62 |
| CCCCn1c(SCC(=O)Nc2nccs2)nc2ccsc2c1=O | 0.0592 |
| COc1ccc(OC)c(/C=C2\C(=O)/C(=C/c3cc(OC)ccc3OC)C3CCC2N3C)c1 | 6.89 |
| Cc1nc(-c2ccc(Cl)cc2Cl)nc(C)c1C#N | 20.8 |
| COC(=O)c1oc2c(c1C)-c1nc3ccccc3nc1C(C)(C)C2 | 2.31 |
| CCOC(=O)C1=C(CN2CCN(C(=O)OCC)CC2)NC(=O)NC1c1cccc(OC)c1OC (centres unmarked) | 2.12 |
| COc1ccc(C)cc1NC(=O)c1ccc(C)o1 | 3.53 |
| CCOc1ccc(C)cc1S(=O)(=O)n1cnc2cc(C)c(C)cc21 | -4.78 |
| O=C(CSc1nc[nH]n1)N1CCN(c2nnc(-c3ccccc3)c3ccccc23)CC1 | -2.75 |
| O=C(NCC1CCCO1)c1nn2c(c1Br)NC(c1cccs1)CC2C(F)(F)F (centres unmarked) | -0.142 |
| Clc1ccc(N2CC=CCC2)nn1 | 1.12 |
| O=C(NCc1ccc2c(c1)OCO2)C1CCN(S(=O)(=O)c2cccc3nonc23)CC1 | -2.56 |
| CCC1CCCCN1CCCNC(=O)c1cc2ccc3cccnc3c2[nH]1 (centres unmarked) | 2.44 |
| CC[C@H](NC(=O)[C@@H](O)CS(=O)(=O)Cc1ccccc1)C(=O)c1nc2ccccc2s1 | -0.214 |
| O=C(Cc1ccccc1)NCc1ccc(-n2cccc2)cc1 | 1.32 |
| CCn1ncc(/C=C2/CC3C4CC=C5CC(O)CCC5(C)C4CCC3(C)C2=O)c1C (centres unmarked) | 0.64 |
| COc1cc(CNC(=O)C2CCN(c3cnccn3)CC2)cc(OC)c1OC | 0.758 |
| O=C(c1cccs1)N1CCc2ccccc2C1 | -4.4 |
| O=C(CN1C(=O)S/C(=C\c2ccc(Cl)cc2)C1=O)Nc1ccc(C(=O)O)cc1 | -3 |
| O=C(Nc1cccc2c1C(=O)c1ccccc1C2=O)c1cccs1 | 1.43 |
| COc1ccccc1C(=O)Nc1cccc(C)c1C | -1.48 |
| Nc1ncc(Br)nc1N | 0.66 |

| SMILES | % Inhibition @ 10 uM [%] |
| --- | --- |
| Cc1ccc(-n2c(SCC(=O)c3ccccc3)nc3nncc-3c2O)cc1C | -6.91 |
| COc1ccc(CC(=O)NCc2ccc3c(c2)OCO3)cc1 | -1.52 |
| O=C1N/C(=C/c2cc(Br)ccc2O)C(=O)N1Cc1ccccc1F | -3.29 |
| Cc1cc(C)cc(OCCCc2c(C)n[nH]c2C)c1 | -4.95 |
| Cc1ccc(S(=O)(=O)NC(C(=O)O)C23CC4CC(CC(C4)C2)C3)cc1 (centres unmarked) | 4.15 |
| CCOc1ccc2sc(/C=N/Cc3cccs3)c(O)c2c1 | -3.16 |
| O=C(O)c1cccc(COc2cccc(Br)c2)c1 | 3.53 |
| COc1cc2c(cc1OC)C(c1cccs1)CC(=O)N2 (centres unmarked) | 5.39 |
| O=C(CCC(=O)N1Cc2ccccc2Oc2ncccc21)NCCC1=CCCCC1 | 0.451 |
| COc1ccc(C(=O)ON=C2C(C)=CC(=O)C=C2C)cc1 | 4.95 |
| O=C(CN1C(=O)CSc2ncccc21)NCCCN1CCOCC1 | 1.03 |
| OCCN(Cc1ccccc1)Cc1cccc(F)c1 | 1.08 |
| COc1ccc2c(Sc3ccc(Cl)cc3)c(C(=O)NCCCN3CCCC3=O)[nH]c2c1 | -1.17 |
| Cc1cc(C)c(S(=O)(=O)NCc2ccc(C(=O)NCCc3ccccc3)cc2)c(C)c1 | -3.35 |
| CC1=C(C(=O)Nc2cccnc2)C(c2cccs2)n2nc(-c3ccccc3Cl)nc2N1 (centres unmarked) | -3.67 |
| CCOc1cc(C)c(Cl)cc1S(=O)(=O)NCc1cccnc1 | -5.21 |
| O=C(NC1CCCc2ccccc21)c1ccc(CS(=O)c2ccc(Cl)cc2)o1 (centres unmarked) | 4.79 |
| CCCN(Cc1cc([N+](=O)[O-])ccc1O)CC1CC1 | 0.00588 |
| CC(=O)c1ccc(NC(=O)c2ccc(Oc3ccccc3)cc2)cc1 | -0.318 |
| Cc1cc(C)nc(NC2=NCC(=O)N2c2ccccc2Br)n1 | -2.32 |
| COc1ccc(OC)c(C2CC(=O)N3C(=C2C#N)SCC3(O)c2ccc(F)cc2)c1 (centres unmarked) | 3.24 |
| COc1ccc(CN(C(=O)c2cccs2)c2ccccc2C(=O)O)cc1 | 3.9 |
| O=C(CCCC(=O)Nc1ccc2ccccc2c1)Nc1ccc2ccccc2c1 | -3.48 |
| CCCCNC(=O)C1CCN(S(=O)(=O)CC)CC1 | 2.18 |
| COc1ccc(-c2cc(C(=O)NCc3ccco3)c3ccccc3n2)cc1OC | -1.42 |
| CCCN1C(=O)S/C(=C\c2cc(OC)c(O)cc2Br)C1=O | -0.519 |

| SMILES | % Inhibition @ 10 uM [%] |
| --- | --- |
| CC(C)CNS(=O)(=O)c1ccc(CCC(=O)N2CCN(C)CC2)cc1 | -1.61 |
| CN(C)CCn1c2ccccc2c2nc3ccc([N+](=O)[O-])cc3cc21 | 1.24 |
| CC1=N/C(=C/c2cccnc2)C(=O)O1 | 21.5 |
| O=c1[nH]c(=O)n(-c2ccccc2)c2c1C(C(F)(F)F)(C(F)(F)F)NC(c1cccs1)=N2 | -6.43 |
| CCOc1ccc(C(=O)N(C(=O)c2ccc(OCC)cc2)c2ncccc2C)cc1 | 3.04 |
| Cc1ccc(OCCCCn2c(C(C)O)nc3ccccc32)cc1 (centres unmarked) | 4.3 |
| CCCN(CCC)c1ccc(C2NC(=O)c3c(sc4c3CCN(C)C4)N2)cc1 (centres unmarked) | 5.31 |
| Cc1cc(C(F)(F)F)nc(SCC(=O)Nc2ncc(C(F)(F)F)cc2Cl)n1 | 2.42 |
| Cc1cc(OCCn2c(C)c(C=C3C(=O)N(C)C(=O)N(C)C3=O)c3ccccc32)ccc1Cl | -1.33 |
| CN1C(=O)c2ccccc2C(C(=O)O)C1c1ccc(F)cc1 (centres unmarked) | -5.17 |
| COc1cc(-c2nnc3n(Cc4ccc(F)cc4)c(=O)c4ccccc4n23)cc(OC)c1OC | -1.72 |
| CCOC(=O)c1cnc(-c2ccccc2)nc1N1CCOCC1 | 2.39 |
| COc1cc(-c2nc3nc(C)cc(C)n3n2)cc(OC)c1OC | 1 |
| Cc1ccc2nc(NC(=O)c3cc(=O)c4cc(C)cc(C)c4o3)sc2c1 | 1.9 |
| CCOC(=O)c1c(NC(=O)COCc2cc(-c3cccs3)on2)sc2c1CCCC2 | -2.69 |
| COc1ccc(/C=C/C(=O)NCc2ccccc2C)cc1 | 11.1 |
| Cc1ccc(NC(=O)C23CC4CC(C2)CC(n2cncn2)(C4)C3)c(C)c1 | -3.68 |
| COc1cc(CN2CCN(Cc3ccco3)CC2)cc(OC)c1OC | 14.3 |
| N#Cc1cc2c(=O)n3ccccc3nc2n(CCc2ccccc2)c1=N | 5.3 |
| Fc1ccc(CN2CCN(C/C=C/c3ccccc3)CC2)cc1 | -3.71 |
| OCCN1CCN(Cc2ccccc2Cl)CC1 | 6.6 |
| Cc1cn2c3ccccc3nc2n1CCCO | -9.37 |
| CC(CNC(=O)Cn1c(=O)c2cccn2c2cccnc21)c1ccccc1 (centres unmarked) | -2.97 |
